Measured values taken from PubChem BioAssay AID686978 (National Center for Advancing Translational Sciences (NCATS), 2013).
The whole screen tested about 420,000 compounds, of which about 64,000 (15%) were called active. Inconclusive means that the source gave no clear call. Such entries were picked first, then a sample of the others. Calls come from the whole dose curve; as a rule, active = well fitted inhibition curve with a large enough effect; inconclusive = small, poorly fitted or top-dose-only effect; inactive = flat fitted curve, though single readings scatter. Potencies of inconclusive entries are left out as doubtful fits.

Experiment: qHTS for Inhibitors of human tyrosyl-DNA phosphodiesterase 1 (TDP1): qHTS in cells in absence of CPT; note: nearly all actives have a fitted effect of over 55% in size
Details: DT40 Tdp1-/- hTDP1 cells, no CPT, ATP luminescence, 48 h; activity change, negative = growth inhibition: at 46.2 µM (top of the series) unless noted
Outline: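 Luminescent ATP content (CellTiter-Glo) served as the growth readout. Knockout chicken DT40 cells expressing human TDP1 were exposed to compounds without camptothecin for a minimum 48 hr at 37 °C.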
% is set by controls: 0 for no effect and ±100 for the full control effect; potency is the fitted concentration of half-maximal effect; tags give direction and shape of the fitted curve.

Row | Compound | Potency | activity change, negative = growth inhibition
1 | CCCOC(=O)Nc1nc2ccccc2o1 | inconclusive [inhibitor, single point] | 
2 | O=C(O)c1ccc(S(=O)(=O)N2CCCCCCC2)cc1 |  | inactive: -5.13%
3 | CCN(CC)c1ccc(-n2cc3c(=O)n(C)c(=O)n(C)c3c2)cc1 | inconclusive [inhibitor, single point] | 
4 | CCOC(=O)C1CCCN(c2ncnc3c2nnn3C)C1 (configuration not stated) |  | inactive: -22.7%
5 | Cc1ccc(CN2CCC(CNS(=O)(=O)c3ccc(-c4ccc(=O)[nH]n4)s3)CC2)cc1 | inconclusive [inhibitor, single point] | 
6 | CC(=O)c1cc(-c2ccccc2)n(CC(=O)NCc2cccs2)c1C | inconclusive [inhibitor, single point] | 
7 | CC(C)Cn1c(N)c(C(=O)COC(=O)/C=C/c2ccccc2)c(=O)n(C)c1=O | inconclusive [inhibitor, partial curve, poor fit] | 
8 | COc1ccc(-c2nnc3ccc(SCC(=O)Nc4nc5ccc(C)cc5s4)nn23)cc1OC | inconclusive [inhibitor, partial curve] | 
9 | CC(C#N)Sc1ccc(S(=O)(=O)N(C)C2CCCCC2)cn1 (configuration not stated) | inconclusive [inhibitor, partial curve] | 
10 | CC[C@]12c3[nH]c4ccc(Cl)cc4c3CCN1C(=O)[C@@H](CC(=O)NCc1ccc(OC)c(OC)c1)C[C@@H]2C(=O)N1CCN(C(=O)c2ccco2)CC1 | inconclusive [inhibitor, single point] | 
11 | COC(=O)c1[nH]c2ccc(F)cc2c1NS(=O)(=O)c1ccc(OC)cc1 | active: 3.26 µM | 
12 | O=S(=O)(Nc1ccc(F)cc1F)c1ccc(-n2cccn2)cc1 | inconclusive [inhibitor, single point] | 
13 | O=C(CSc1nnc(C2CC2)n1Cc1ccccc1)N1CCNC1=O |  | inactive: 2.71%
14 | COCCn1c(SCC(=O)c2c[nH]c3ccccc23)nc2cc(C(=O)NC(C)C)ccc2c1=O | inconclusive [inhibitor, single point] | 
15 | COC(=O)c1cc(S(=O)(=O)N2CCOCC2)ccc1Sc1ccccc1N |  | inactive: -16.7%
16 | CC1(c2ccc(Cl)cc2)NC(=O)N(CC(=O)Nc2ccc3c(c2)OCO3)C1=O (configuration not stated) |  | inconclusive: -30% [inhibitor]
17 | Cc1ccc(S(=O)(=O)NC(=O)c2cc(C)n(CCCN3CCOCC3)c2C)cc1 |  | inactive: 4.91%
18 | CC(C)/C=N/NC(=O)c1ccc(Cl)cc1 | inconclusive [inhibitor, single point] | 
19 | CCC(=O)N1CCCC(C)(C(=O)Nc2nccc3cccnc23)C1 (configuration not stated) |  | inactive: -5.64%
20 | O=C(CSc1nnc(-c2ccco2)n1CC1CCCO1)c1ccc(F)cc1 (configuration not stated) | active: 20.6 µM | 
21 | CC(C)c1ccc(Nc2nc(NCc3ccco3)nc(N3CCOCC3)n2)cc1 | inconclusive [inhibitor, single point] | 
22 | CCOc1ccc(CCNC(=O)c2cc3c(s2)-c2c(C)cccc2OC3)cc1 |  | inactive: -27.7%
23 | Cc1oc(-c2ccccc2F)nc1CS(=O)(=O)CC(=O)NC1CCCC(C)C1C (configuration not stated) | inconclusive [inhibitor, single point] | 
24 | Cc1cccc(C(=O)NCC(=O)N2CCN(S(=O)(=O)c3cc(C)ccc3C)CC2)c1 | inconclusive [inhibitor, single point] | 

Row | Compound | Potency | activity change, negative = growth inhibition
25 | COc1ccccc1C(=O)NC(=Nc1nc2ccccc2o1)NC(=O)c1ccccc1OC | inconclusive [inhibitor, single point] | 
26 | CN1C(=O)C(O)(CC(=O)c2ccncc2)c2ccccc21 (configuration not stated) | inconclusive [inhibitor, single point] | 
27 | COc1ccccc1NC(=O)Cn1c(CCC(=O)O)ccc1-c1ccccc1 |  | inactive: -26.2%
28 | O=C(NC1CCCCC1)C1CCCN(S(=O)(=O)c2ccc(F)cc2)C1 (configuration not stated) | inconclusive [inhibitor, partial curve] | 
29 | Cc1ccc(/C=C/C(=O)N2CCN(Cc3ccccc3)CC2)o1 | inconclusive [inhibitor, single point] | 
30 | CC(C)(C)C(Cn1ccnc1)NC(=O)c1ccc2nc(C3CC3)oc2c1 (configuration not stated) |  | inactive: -5.19%
31 | CCN(CC(=O)NCc1cccs1)c1nnnn1-c1ccccc1 | inconclusive [inhibitor, single point] | 
32 | Clc1ccc(-c2noc(CSc3nnc(Cc4cccs4)n3-c3ccccc3)n2)cc1 | inconclusive [inhibitor, single point] | 
33 | Cc1nnc(SCC(=O)NCc2cccs2)[nH]c1=O |  | inactive: 10.3%
34 | COc1cc(C(=O)N(C)CC2CCN(CCc3cccc(C(F)(F)F)c3)CC2)ccc1C | inconclusive [inhibitor, single point] | 
35 | CCCCn1cnc2cc(C)c(C)cc21 | inconclusive [inhibitor, single point] | 
36 | Cc1cc2c(NCc3ccccc3)ncnc2s1 | active: 6.51 µM | 
37 | Cc1ccc(NS(=O)(=O)c2cccc(C(=O)N/N=C/c3ccc4c(c3)OCCO4)c2)c(C)c1 |  | inactive: -24.2%
38 | CN(CCCOc1ccccc1F)Cc1ccccc1 |  | inactive: -3.38%
39 | COc1ccccc1CNC(=O)COn1nnc2ccc(S(=O)(=O)N3CCOCC3)cc21 |  | inactive: -30%
40 | COc1ccc(NC(=O)Cn2nnc3sc4c(c3c2=O)CCCC4)cc1 | inconclusive [inhibitor, single point] | 
41 | CC1(C)CC(=O)C2=C(C1)Oc1nc3ccccc3cc1C2C(C#N)C#N (configuration not stated) | active: 4.11 µM | 
42 | COc1cccc(C(=O)N2CCN(Cc3cc(Br)ccc3OC)CC2)c1 | inconclusive [inhibitor, single point] | 
43 | Oc1ccc(C2Nc3cccc4cccc(c34)N2)c(O)c1 | active: 25.9 µM | 
44 | COc1ccc(/C=C/C(=O)Nc2ccc(C(C)=O)cc2)cc1S(=O)(=O)N1CCOCC1 |  | inactive: -21.5%
45 | CCN1C[C@@H]2[C@@H]3C(=O)N(C)C(=O)[C@@H]3[C@](Cc3ccccc3)(C1=O)N2C(=O)c1ccc(Cl)cc1 |  | inactive: 0.133%
46 | CN(NC(=O)c1ccc(Cl)cc1)c1nc(-c2ccccc2)nnc1C(F)(F)F | active: 14.6 µM | 
47 | O=C(C=Cc1ccc2c(c1)OCO2)C1CC1 | inconclusive [inhibitor, single point] | 
